{"source": "patent US12280114B2", "about": "“Extraction of plant source “medicinal soup” and manual preparation of “herbal medicine” and related products” (BEIJING BAISHIHEKANG PHARMACEUTICAL TECHNOLOGY (BSJPHARMA) …, priority 2018, dated 2025)", "key": {"[1]": {"settings": "function annotation in words, no test described, cited from earlier work"}, "A549 cells [2]": {"system": "A549 cells", "assay": "RT-qPCR detection of nucleic acid delivered by lipid into A549 cells", "type": "cell-based, human", "settings": "for delivery of single-stranded RNA into A549 cells (RT-qPCR): single lipid, HJT-sRNA-m7"}, "MRC-5 cells": {"system": "MRC-5 cells", "assay": "RT-qPCR detection of nucleic acid delivered by lipid into MRC-5 cells", "type": "cell-based, human", "settings": "for delivery of single-stranded RNA into MRC-5 cells (RT-qPCR): HJT-sRNA-m7"}, "A549 cells [3]": {"system": "A549 cells", "assay": "Digital PCR (ddPCR) detection of nucleic acid delivery by lipid into A549 cells", "type": "cell-based, human", "settings": "single lipid; boiling or reverse evaporation method", "method": "Referring to the QX200 Droplet Reader and QuantaSoft Software manual for the protocols, the results were analyzed using QuantaSoft software.\n2.2 Experimental method: total RNA was collected and extracted by TRIzol lysis buffer according to the above method, and reverse transcribed to cDNA using High capacity cRNA Reverse Transcription Kit, and the cDNA from different groups was subjected to digital PCR reaction.\n2.2 Experimental method: Total RNA was collected and extracted by TRIzol lysis buffer according to the above method, and reverse transcribed to cDNA using TaqMan™ MicroRNA Reverse Transcription KitHigh, and the cDNA from different groups was subjected to digital PCR reaction.\n2.2 Experimental method: Total RNA was collected and extracted by TRIzol lysis buffer according to the above method, and reversed to cDNA using High capacity CRNA Reverse Transcription Kit, and the cDNA from different groups was subjected to digital PCR reaction."}, "A549 cells [4]": {"system": "A549 cells", "assay": "Flow cytometry of green fluorescent protein delivered by lipid into A549 cells", "type": "cell-based, human", "settings": "6 hours", "method": "(§1) Experimental method: The bencaosome was prepared by reverse evaporation of ether. 0.2 nmol green fluorescent protein dissolved in 20 μl water was added to 100 μl ether solutions containing 0 μg, 1 μg, 3 μg lipid respectively. After fully mixing, sonication was conducted for 3 min. After evaporation at 60° C. to remove organic solvent, the bencaosome solution was obtained by hydrating with 100 μL opti-MEM. Then the bencaosome was added to A549 cells and co-incubated for 6 hours. The samples were collected and tested. After washing three times with PBS, the samples were digested with trypsin for three minutes. The trypsin was removed, and then the samples were washed with PBS and blown off. Accuri® C6 instrument was used to measure.\nas §1, with “method.” for “of ether.”\nExperimental method: The bencaosome was prepared by heating method. 0.2 nmol green fluorescent protein dissolved in 100 μl water was added to 0 μL, 1 μL, 3 μL of lipid respectively. After fully mixing, the bencaosome solution was obtained by heating at 90° C. for 15 min. Then the bencaosome was added to A549 cells and co-incubated for 6 hours. The samples were collected and tested. After washing three times with PBS, the samples were digested with trypsin for three minutes, the trypsin was removed, and then the samples were washed with PBS and blown off. Accuri® C6 instrument was used to measure.\nas §1, with “reverse evaporation method. 0.2 nmol” for “reverse evaporation of ether. 0.2 nmol”, “was added 100 μl” for “was added to 100 μl”, “min. After evaporated at 60°” for “min. After evaporation at 60°”, “for three minutes, the trypsin was” for “for three minutes. The trypsin was”, “removed, and the samples” for “removed, and then the samples”"}, "A549 cells [5]": {"system": "A549 cells", "assay": "Confocal fluorescence microscopy of green fluorescent protein delivered by lipid into A549 cells", "type": "cell-based, human", "settings": "reverse evaporation method; 6 hours", "method": "Experimental method: The bencaosome was prepared by reverse evaporation method. 0.2 nmol green fluorescent protein dissolved in 20 μl water was added to 100 μl ether solutions containing 0 μg, 0.25 μg, 0.75 μg lipid respectively. After fully mixing, sonication was conducted for 3 min. After evaporated at 60° C. to remove organic solvent, the bencaosome solution was obtained by hydrating with 100 μL opti-MEM. Then the bencaosome was added to A549 cells and co-incubated for 6 hours. The samples were collected and tested. After washing three times with PBS, the samples were fixed with 4% paraformaldehyde. After washing three times with PBS, the samples were stained with Alexa Fluor® 488 phalloidin for 30 min. After washing three times with PBS, the samples were stained with Dapi for 5 min, then washed with PBS and sealed for observation."}, "A549 cells [6]": {"system": "A549 cells", "assay": "Confocal fluorescence microscopy of lipid-delivered nucleic acid in A549 cells", "type": "cell-based, human", "settings": "boiling method; 6 hours", "method": "[…] Then the mixture was dropped into A549 cells, and after 6 hours of co-incubation, the samples were washed three times with PBS, fixed with 4% paraformaldehyde, washed three times with PBS, stained with Alexa Fluor® 488 phalloidin for 30 min, washed 3 times with PBS, and stained with DAPI for 5 min, washed with PBS, and then sealed.\n[…] Then, the mixture was dropped into A549 cells, and after 6 hours of co-incubation, the samples were washed three times with PBS, fixed with 4% paraformaldehyde, washed three times with PBS, stained with Alexa Fluor® 488 phalloidin for 30 min, washed 3 times with PBS, and stained with DAPI for 5 min, PBS washed, and then sealed."}, "[7]": {"assay": "In vivo delivery of small RNA into mouse blood, stomach, small intestine and liver via gavage (RT-qPCR)", "settings": "for delivery of sRNA single-stranded nucleic acid into mouse blood via oral administration: Example 11, 10 μL single lipid + sRNA 1 nmol each, heating method"}, "[8]": {"settings": "functional small molecules identified in HJT decoctosome (Table 3)"}, "[9]": {"settings": "10 μg/mL lipid, reverse evaporation method"}, "[10]": {"settings": "intragastric, each small RNA 1 nmol/animal, lipid 10 μl/animal, 6 hours"}}, "note": "Read-outs that look alike come from different tables or passages of the source."}
{"compound": "NC(=O)Cc1ccccc1", "note": "[2-Phenylacetamide]", "values": [{"measurement": "Description of function", "setting": "[1]; functional small molecules identified in PGY decoctosome (Table 5)", "value": "Antiarrhythmic"}]}
{"compound": "CN1[C@@H]2CCC[C@H]1CC(NC(=O)c1nn(C)c3c(O)cccc13)C2", "note": "(stereo partly drawn) [7-hydroxygranisetron]", "values": [{"measurement": "Description of function", "setting": "[1]; [8]", "value": "Anti-tumor"}]}
{"compound": "CC/C=C\\C/C=C\\C/C=C\\CCCCCCCC(=O)OC[C@@H](O)COP(=O)(O)OCC[N+](C)(C)C", "note": "[Lipid No. 37, LPC(18:3)]", "values": [{"measurement": "delivery of single-stranded RNA into A549 cells (RT-qPCR)", "setting": "A549 cells [2]; boiling method", "value": "Delivered Single-Stranded RNA into A549 and MRC-5 Cells"}, {"measurement": "delivery of single-stranded RNA into MRC-5 cells (RT-qPCR)", "setting": "MRC-5 cells; single lipid, boiling method", "value": "Delivered Single-Stranded RNA into A549 and MRC-5 Cells"}]}
{"compound": "CCCCCC/C=C\\CCCCCCCCCC(=O)O[C@H](COC(=O)CCCCCCC/C=C\\CCCCCC)COP(=O)(O)OCCN", "note": "[Lipid No. 39, PE(16:1-18:1)]", "values": [{"measurement": "delivery of HJT-sRNA-m7 dsRNA into A549 cells (ddPCR)", "setting": "A549 cells [3]", "value": "could effectively deliver HJT-sRNA-m7 dsRNA into A549 cells"}]}
{"compound": "CCCCCCCCCCCCCCCC(=O)OC[C@@H](O)COP(=O)([O-])OCC[N+](C)(C)C", "note": "[LysoPC(16:0)]", "values": [{"measurement": "Description of function", "setting": "[1]; [8]", "value": "Anti-fibrosis"}]}
{"compound": "CCCCCCCCCCCCCCCC(=O)OCC(COP(=O)(O)OCCN)OC(=O)CCCCCCCCCCCCCCC", "note": "(stereo not drawn) [lipid 71, PE(16:0/16:0)]", "values": [{"measurement": "efficiency to deliver green fluorescent protein into A549 cells", "setting": "A549 cells [4]; [9]", "value": 7.1, "unit": "%"}, {"measurement": "entry of green fluorescent protein into A549 cells (confocal microscope)", "setting": "A549 cells [5]", "value": "could effectively deliver protein into A549 cells"}]}
{"compound": "CCCCCC/C=C\\CCCCCCCC(=O)O[C@H](COC(=O)CCCCCCCCCCCCCCC)COP(=O)(O)OCCN", "note": "[lipid No. 38, PE(16:0/16:1)]", "values": [{"measurement": "entry of PGY-sRNA-6-Cy3 into A549 cells (confocal microscopy)", "setting": "A549 cells [6]", "value": "could effectively deliver double-stranded nucleic acid into A549 cells"}, {"measurement": "delivery of sRNA single-stranded nucleic acid into mouse blood via oral administration", "setting": "[7]; 12 hours", "value": "the delivery effect was better than POPC and Lipofectamine RNAiMAX"}, {"measurement": "delivery of HJT-sRNA-m7 dsRNA into A549 cells (ddPCR)", "setting": "A549 cells [3]", "value": "could effectively deliver HJT-sRNA-m7 dsRNA into A549 cells"}, {"measurement": "delivery of double-stranded RNA into A549 cells (RT-qPCR)", "setting": "A549 cells [2]; single lipid 2.5 μL, HJT-sRNA-m7 100 nM, boiling or reverse evaporation method", "value": "delivered double-stranded RNA into A549 and MRC-5 cells"}, {"measurement": "delivery of single-stranded RNA into A549 cells (RT-qPCR)", "setting": "A549 cells [2]; boiling method", "value": "the efficiency of delivery was much higher than that of RNAiMAX"}, {"measurement": "amount of HJT-sRNA-m7 that entered the cells (RT-qPCR)", "setting": "MRC-5 cells; Example 2-1, MRC-5, double-stranded 100 nM, 24 hours, single lipid No. 38 with or without 1 μL other lipid", "value": "showing an effect close to the transfection reagent RNAiMAX"}, {"measurement": "delivery effect of lipid, times that of RNAiMAX (RT-qPCR)", "setting": "MRC-5 cells; double-stranded RNA, MRC-5 cells, heating method", "value": "about twice"}, {"measurement": "delivery of single-stranded RNA into MRC-5 cells (RT-qPCR)", "setting": "MRC-5 cells; single lipid, boiling method", "value": "the efficiency of delivery was much higher than that of RNAiMAX"}]}
{"compound": "CCCCCCCCCCCCCCCCCCC[C@@H](O)[C@@H](N)CO", "note": "[lipid No. 41, Sphinganine (d22:0)]", "values": [{"measurement": "entry of PGY-sRNA-6-Cy3 into A549 cells (confocal microscopy)", "setting": "A549 cells [6]", "value": "could effectively deliver double-stranded nucleic acid into A549 cells"}, {"measurement": "efficiency to deliver green fluorescent protein into A549 cells", "setting": "A549 cells [4]; 10 μg/mL lipid, heating method 90° C. 15 min", "value": 5.5, "unit": "%"}, {"measurement": "efficiency to deliver green fluorescent protein into A549 cells", "setting": "A549 cells [4]; [9]", "value": 23.4, "unit": "%"}, {"measurement": "efficiency to deliver green fluorescent protein into A549 cells", "setting": "A549 cells [4]; 30 μg/mL lipid, heating method 90° C. 15 min", "value": 9.5, "unit": "%"}, {"measurement": "delivery of sRNA single-stranded nucleic acid into the mouse liver via oral administration", "setting": "[7]; Example 11-1, 12 hours", "value": "could effectively deliver sRNA single-stranded nucleic acid into the mouse liver"}, {"measurement": "delivery of sRNA single-stranded nucleic acid into the mouse small intestine via oral administration", "setting": "[7]; Example 11-1, 12 hours", "value": "could effectively deliver sRNA single-stranded nucleic acid into the mouse small intestine"}, {"measurement": "delivery of sRNA single-stranded nucleic acid into the mouse stomach via oral administration", "setting": "[7]; Example 11-1, 12 hours", "value": "could effectively deliver sRNA single-stranded nucleic acid into the mouse stomach"}, {"measurement": "delivery of sRNA single-stranded nucleic acid into mouse blood via oral administration", "setting": "[7]; 12 hours", "value": "the delivery effect was better than POPC and Lipofectamine RNAiMAX"}, {"measurement": "entry of small RNA into small intestinal cells", "setting": "[7]; [10]", "value": "could promote the entry of small RNA into small intestinal cells"}, {"measurement": "entry of small RNA into the blood", "setting": "[7]; [10]", "value": "could promote the entry of small RNA into the blood"}, {"measurement": "entry of small RNA into the liver", "setting": "[7]; [10]", "value": "could promote the entry of small RNA into the liver"}, {"measurement": "entry of small RNA into the stomach cells", "setting": "[7]; [10]", "value": "could promote the entry of small RNA into the stomach cells"}, {"measurement": "entry of green fluorescent protein into A549 cells (confocal microscope)", "setting": "A549 cells [5]", "value": "could effectively deliver protein into A549 cells"}, {"measurement": "delivery effect of lipid, times that of RNAiMAX (RT-qPCR)", "setting": "A549 cells [2]; HJT-sRNA-m7 double-stranded RNA, A549 cells, boiling method", "value": "about twice"}, {"measurement": "delivery effect of lipid compared with RNAiMAX (RT-qPCR)", "setting": "A549 cells [2]; HJT-sRNA-m7 double-stranded RNA, A549 cells, reverse evaporation method", "value": "significantly higher than that of RNAiMAX"}, {"measurement": "delivery of single-stranded RNA into A549 cells (RT-qPCR)", "setting": "A549 cells [2]; boiling method", "value": "delivered HJT-sRNA-m7 single-stranded RNA into A549 and MRC-5 cells"}, {"measurement": "delivery effect of lipid compared with RNAiMAX (RT-qPCR)", "setting": "MRC-5 cells; HJT-sRNA-m7 double-stranded RNA, MRC-5 cells, reverse evaporation method", "value": "significantly higher than that of RNAiMAX"}, {"measurement": "delivery of single-stranded RNA into MRC-5 cells (RT-qPCR)", "setting": "MRC-5 cells; single lipid, boiling method", "value": "delivered HJT-sRNA-m7 single-stranded RNA into A549 and MRC-5 cells"}, {"measurement": "delivery of double-stranded RNA into MRC-5 cells (RT-qPCR)", "setting": "MRC-5 cells; single lipid, boiling method", "value": "delivered double-stranded RNA into MRC-5 cells"}]}
{"compound": "green fluorescent protein", "values": [{"measurement": "efficiency of green fluorescent protein free entry into A549 cells", "setting": "A549 cells [4]; no lipid", "value": 3.6, "unit": "%"}]}
